# Over roughly 33,000 sequences, “E-score (-0.5 to 0.5)” has its median near -0.013; the highest 2% begin near 0.3. Some of the results follow.
# Biological target: T1, Msn1 (UniProt P22148)
# T1 sequence: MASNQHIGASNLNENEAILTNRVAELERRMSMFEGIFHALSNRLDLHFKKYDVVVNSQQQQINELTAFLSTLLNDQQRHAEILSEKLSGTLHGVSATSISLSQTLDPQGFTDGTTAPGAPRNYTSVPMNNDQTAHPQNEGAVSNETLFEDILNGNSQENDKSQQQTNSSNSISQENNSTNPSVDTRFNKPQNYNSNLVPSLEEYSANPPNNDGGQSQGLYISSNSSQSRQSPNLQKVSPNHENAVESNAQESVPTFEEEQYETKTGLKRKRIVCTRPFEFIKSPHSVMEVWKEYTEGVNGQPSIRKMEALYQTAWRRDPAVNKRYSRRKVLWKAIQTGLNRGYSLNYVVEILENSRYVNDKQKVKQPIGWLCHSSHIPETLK
# Experiment: PBM E-score (8-mer binding enrichment) (E-score (-0.5 to 0.5)); higher = stronger / more preferred TF binding; most listed sequences are background and not binding sites
# Settings: protein concentration: 200 nM; construct: GST-full length
# Procedure: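 Universal 'all 10-mer' protein binding microarrays (Agilent AMADID 015681) probed with GST-tagged S. cerevisiae TFs (full-length or DBD) made by in vitro transcription/translation (PURExpress), about 100-200 nM. Bound TF was detected with fluorescent anti-GST. Each ungapped 8-mer (which stands for itself and its reverse complement) is scored by the PBM enrichment score (E-score), a modified Wilcoxon-Mann-Whitney statistic from -0.5 to +0.5, computed with the Universal PBM Analysis Suite. Scale: above 0.35 generally sequence-specific binding.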
row,Sequence,PBM E-score
1,CCGAATTC,0.127
2,GGTAATTA,0.0347
3,GACATGAC,0.335
4,CGACGGCA,-0.188
5,AAGCTCTA,0.149
6,ATCACGGG,-0.143
7,ATGACTTC,0.0818
8,GACGGCAA,0.0448
9,CGCAAGCC,-0.0744
10,ACTTTCCT,-0.25
11,ACGCCTGA,0.0739
12,GTGACTTA,0.122
13,CATTTGGC,0.0384
14,AAGGTAAG,-0.0721
15,TATGCGCA,-0.104
16,GGCAGGGA,-0.161
17,CAATCGCG,-0.0643
18,ACGCGACC,0.00523
19,TAACCCAA,0.144
20,CGTCGAGC,-0.0162
21,TCATGGCA,-0.0998
22,AGTAAGGA,0.0701
23,CCCAATTC,0.17
24,CAATAAGC,0.00863
25,AGTAGTAC,0.23

row,Sequence,PBM E-score
1,GGCATACC,-0.216
2,ATATGAGC,-0.11
3,AACCGAGT,-0.16
4,CAAAGCTG,0.123
5,AAGGTTAT,-0.0984
6,CCTGCGTA,-0.0595
7,AACTGTTA,0.11
8,GGCAAAGA,0.0839
9,GAGTGGCC,-0.224
10,AATGGTTC,0.0804
11,ACACGTCG,0.0201
12,AGTGCGTG,0.0541
13,GCATCGCC,-0.0362
14,GACCGAAC,-0.0277
15,ATGAGACA,0.358
16,AGATCATA,0.14
17,CCGCAAGA,0.0897
18,ACAGAAAA,0.19
19,AAACTCCT,-0.191
20,AATATAGA,0.136
21,GCATAGCA,-0.118
22,AAGTTTAT,0.217
23,AGGTGCAC,-0.0657
24,GACCTTGC,-0.244
25,GGGGTCTA,-0.175

row,Sequence,PBM E-score
1,GTATCCCA,-0.00874
2,CACCCATG,-0.141
3,CACTACTA,-0.0134
4,AAAGGCAA,0.117
5,ATTCGCAA,0.0173
6,CGAATGAC,0.258
7,GTAAAGAA,0.194
8,CATTTAAG,0.133
9,CGTAGCTC,0.0345
10,AAGAAGGC,-0.229
11,ACCGTTAC,-0.0343
12,GGGAATTA,0.0821
13,GACGCCTC,-0.0286
14,CACTCTAA,-0.0901
15,CATTATAG,0.0223
16,GCAGTTAC,0.00854
17,ATCTCTCG,-0.0499
18,GTTACAGA,-0.21
19,ATACGAAT,0.0593
20,CCCACGCC,-0.399
21,TCGATTCA,-0.008
22,CCTCATCA,-0.209
23,AGGGACTA,0.108
24,ATGGTGAC,-0.0377
25,AATTCCCG,0.158

row,Sequence,PBM E-score
1,AATGATGG,0.0357
2,CAGAACTC,-0.0381
3,GATAACAC,0.0932
4,CAAGAATG,-0.0175
5,ACATACAC,0.207
6,AGGTATCC,0.0502
7,CCCGGAGA,-0.00367
8,CGTGAAAA,0.186
9,GCTGACGA,-0.0445
10,GCGTGCGA,-0.0121
11,GTGCTGCA,-0.105
12,GGAGGAAA,-0.141
13,ATCAGGGC,-0.323
14,CGATAGGC,-0.0599
15,CTTCATCA,-0.143
16,CACAAGGA,0.0619
17,ACTGGGGG,-0.323
18,GTTCGAGA,0.11
19,ATAAAGCC,-0.151
20,AATTGCGG,0.0799
21,GCGACGCC,-0.162
22,CGGGTGAC,-0.0128
23,AACTTCCT,-0.0507
24,CAGTAGAA,0.0664
25,CTATTCTA,0.117

row,Sequence,PBM E-score
1,AGAATATG,0.0647
2,GCCGTCAC,0.00516
3,GATCCAAC,-0.0488
4,CGTTTACC,0.13
5,CTGAGCAG,-0.0675
6,CTTACAAC,0.0763
7,AACGCCGC,-0.0972
8,CCCTATAG,-0.174
9,GTAGTAAC,-0.057
10,TCAGTTAA,0.0941
11,ACTGCATG,0.169
12,CACACATC,0.00833
13,CAAGCAAA,0.1
14,CCATCTGA,0.0309
15,TTCAAAAA,-0.00355
16,TAAGCTTA,0.0947
17,TGGAGACA,0.27
18,GTCGGACA,0.427
19,GCTTTAGA,-0.0753
20,AGGATATA,0.064
21,CCAGTGTA,0.139
22,AATAGCCT,-0.0671
23,ACAGCATG,-0.0851
24,GGCGACCA,-0.247
25,GGCTGTTA,0.146

row,Sequence,PBM E-score
1,GTAGAACA,-0.244
2,GCTTTCTA,0.047
3,AACTAATT,0.0711
4,CGTCGTTA,0.019
5,CACACAAG,0.0895
6,CGGGACAC,0.376
7,CAATGTTA,0.0181
8,AAAACTGG,0.03
9,ACCTCGCC,-0.208
10,TATACATA,0.164
11,CGAAGCAC,0.0622
12,ACAGCACT,0.0423
13,ACTTTTTC,0.145
14,CAGCCTCA,-0.211
15,AAAATAGC,0.0251
16,AGTAACTG,-0.0668
17,AGCAAACT,0.122
18,ACGGACAA,0.474
19,CGATCGCG,0.162
20,CGTGTTGC,-0.116
21,CGGTTCTC,0.0445
22,CCGCTACG,-0.0932
23,GAGGCACC,-0.257
24,ACCTGTTG,-0.0438
25,CAAGGGGC,-0.17

row,Sequence,PBM E-score
1,TAATGACA,0.307
2,ACATCCGA,0.171
3,ACACAATG,0.27
4,AAGACGCG,-0.132
5,CACTTATC,0.108
6,CTGGGCAA,0.0233
7,CAATTTAA,0.106
8,ACTGGTAG,-0.12
9,ATATTCAC,0.0923
10,GGCGTACA,0.0485
11,ACGACTTC,0.0847
12,CCACGTCC,0.046
13,AAGAAGAC,-0.105
14,GGACCGAC,0.0571
15,CACAGTGG,0.0274
16,CAGAATTC,0.135
17,CCCGATCA,-0.147
18,AACCCACA,0.0717
19,AACATGGA,0.159
20,GACCTGGC,-0.141
21,GGGATAGA,-0.152
22,GATGTGCC,-0.00643
